Among all 45,000 compounds or so, about 65 (0.1%) were called active. The call rests on the fitted dose curve; in most records, active means well fitted activation curve with a large enough effect; inconclusive means small, poorly fitted or top-dose-only effect; inactive means no such curve, though single readings can be large or run the other way. The list shows a part of the results. Bridge positions count the residues as written; N and C are the ends. Square brackets hold non-standard residues; d marks the D form. Peptide text beside a SMILES is read from it. hArg = N=C(N)NCCCC[C@H](N)C(=O)O; Mpa = O=C(O)CCS

Chain of UniProt P54803 (P54803 whole entry, looked up): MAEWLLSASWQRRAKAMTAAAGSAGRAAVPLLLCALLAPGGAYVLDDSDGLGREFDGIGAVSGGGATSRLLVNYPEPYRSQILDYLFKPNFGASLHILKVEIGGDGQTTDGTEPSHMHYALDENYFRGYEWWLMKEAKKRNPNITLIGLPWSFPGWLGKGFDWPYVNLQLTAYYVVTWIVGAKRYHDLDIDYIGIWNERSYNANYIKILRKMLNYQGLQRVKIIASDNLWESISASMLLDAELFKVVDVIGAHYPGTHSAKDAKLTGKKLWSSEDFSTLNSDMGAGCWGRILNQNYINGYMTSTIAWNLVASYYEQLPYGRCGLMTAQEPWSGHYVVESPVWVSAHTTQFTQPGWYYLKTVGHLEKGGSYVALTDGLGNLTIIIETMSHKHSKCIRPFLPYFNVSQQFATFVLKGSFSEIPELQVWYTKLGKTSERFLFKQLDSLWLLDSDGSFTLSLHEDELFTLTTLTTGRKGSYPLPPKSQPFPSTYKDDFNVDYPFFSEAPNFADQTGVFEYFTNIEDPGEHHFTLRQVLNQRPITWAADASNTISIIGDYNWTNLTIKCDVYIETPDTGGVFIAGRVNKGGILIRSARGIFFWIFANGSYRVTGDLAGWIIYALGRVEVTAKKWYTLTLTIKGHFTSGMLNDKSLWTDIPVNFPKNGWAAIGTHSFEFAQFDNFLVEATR

The target in the assay is Galactocerebrosidase (Homo sapiens) (UniProt P54803). Description: A Novel Cell-Based Assay to Identify Small Molecules for B -Galactocerebrosidase. Further: 0% is about no effect; nearly all actives have a fitted effect of over 65% in size. The settings on record: 145M-Twi-hGALC-G270D cells (Twitcher mouse brain line with human GALC G270D), HMU-beta-Gal fluorescence, 48 h; series mostly up to 57.5 µM; activation: at the top concentration. Summed up:
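Fluorogenic HMU-b-Gal hydrolysis (0.1 mM final, pH 5.2 citrate-phosphate with 1 mg/mL sodium taurocholate; carbonate stop buffer) measures mutant GALC activity after compound treatment of live 145M-Twi Twitcher brain cells stably carrying human GALC-G270D, with wild-type GALC line alongside; activation sought.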
Take `COc1cccc(Cn2c(CNC(=O)C(C)C)nc3cccnc32)c1`: the “activation” value was inactive: -6.23%.
With `COc1ccccc1Nc1nn2c(=O)c3ccc(C(=O)NCc4cccs4)cc3nc2s1` the figure was inactive: -18.7%; with `COC(=O)c1cc(S(=O)(=O)NCC2CCN(Cc3cc(C)ccc3C)CC2)c[nH]1`, inactive: -15.9%; with `COc1ccc(-c2cn3c(n2)sc2cc(C(=O)NCc4ccccc4OC)ccc23)cc1`, inactive: -10.1%.
With `CC(C)(C)OC(=O)N1CCC(c2c(C(=O)NCc3ccccn3)cnn2-c2ccccc2)CC1` the figure was inactive: -9.28%; with `COc1ccc(C(=O)Nc2ccc(-c3nc4ncccc4o3)cc2)cc1`, inactive: -19.7%.
In the case of `Cc1cc(NC(=O)CCCn2c(C)c3cnn(-c4ccccc4)c(=O)c3c2C)ccc1Br`, the “activation” value was inactive: -13.2%.
As to `CCOc1ccccc1NC(=O)CN1C(=O)CC(c2ccco2)Sc2ccccc21` (stereo not drawn), the “activation” value was inactive: -9.15%.
Take `Cc1cc(C)cc(C(=O)N(Cc2nc(-c3ccc(Cl)cc3)no2)C(C)C)c1`: the “activation” value is inactive: -25.6%.
With `O=S(=O)(c1ccc2ccccc2c1)n1nc(-c2ccco2)nc1NCc1ccc(F)cc1` the figure was inactive: -6.08%.
In the case of `Cc1ccc(C(=O)Nc2ccc(-c3nc4ccccc4s3)c(O)c2)c(C)c1`, the “activation” value is inactive: -28.7%.
With `COCCCNC(=O)c1c(NC(=O)c2nc(S(C)(=O)=O)ncc2Cl)sc2c1CCCC2`, the “activation” value was inactive: -19.5%.
For the molecule `COCCNC(=O)C(=O)NCC(c1ccc2c(c1)OCO2)N1CCOCC1` (stereo not drawn), the “activation” value is inactive: -12.3%.
With `CCN(C(=O)CSc1ncc(S(=O)(=O)c2ccc(C)c(Cl)c2)c(=O)[nH]1)c1cccc(C)c1` the figure was inactive: 3.01%.
With `COC(=O)c1ccc(OCC(O)Cn2cnc3cc(C)c(C)cc32)cc1` (stereo not drawn) the figure was inactive: -9.45%; with `Cc1ccc(CNC(=O)c2cnc(N(C)C)nc2)cc1`, inactive: 1.6%.
The result for `Cc1cc(NC(=O)c2ccc(-c3ccc(Cl)cc3)o2)cc(-c2nc3ncccc3o2)c1O` reads inactive: -5.71%; that for `CCCCN(C)CCNC(=O)c1cc(=O)[nH]c2ccc(S(=O)(=O)N3CCCCCC3)cc12`, inactive: -5.78%; that for `Cc1ccc(NC(=O)CS(=O)(=O)c2nc(-c3ccc(C)cc3)cn2-c2ccc(C)cc2)cc1`, inactive: -7.76%.
With `Cc1nc(-n2nc(C)c(Cc3ccccc3Cl)c2C)sc1C(=O)N1CCCCC1C` (stereo not drawn), the “activation” value is inactive: -15.2%.
With `COc1ccc(NC(=O)c2oc3ccccc3c2NC(=O)c2cc(=O)c3c(C)cc(C)cc3o2)cc1` the figure was inactive: -10.4%.
In the case of `Cc1ccc(NC(=O)c2ncn(-c3ccccc3)n2)cc1Cl`, the “activation” value was inactive: -2.98%.
`COc1ccc(-c2nc(C(=O)Nc3cccc(C(C)=O)c3)nn2-c2ccc(Cl)cc2)cc1`: the “activation” value was inactive: 12.2%.
The result for `COc1ccc(OC)c(Nc2nc3ccccc3n3c(C)nnc23)c1` reads inactive: -8.83%; that for `NC(=O)[C@@H]1CSSCCC(=O)N[C@@H](CCCCN=C(N)N)C(=O)NCC(=O)N[C@@H](CC(=O)O)C(=O)N[C@@H](Cc2c[nH]c3ccccc23)C(=O)N2CCC[C@H]2C(=O)N1` ([Mpa][hArg]GDWPC-NH2; disulfide 1-7), inactive: -13.3%; that for `CCOc1ccccc1NC(=O)CC1C(=O)NCCN1C(=O)c1ccc(F)cc1` (stereo not drawn), inactive: -1.05%.
For `O=C(Nc1cc(-c2nc3cc(Cl)ccc3o2)ccc1Cl)c1cccs1`, the “activation” value is inactive: 0.633%.
For the molecule `COc1ccc(-c2nc(CN3CCC(C(=O)NCCCN4CCN(c5ccccc5F)CC4)CC3)c(C)o2)cc1OC`, the “activation” value is inactive: -9.75%.
Regarding `C#CC(C)(CC)NC(=O)Cn1nnc(-c2ccc(OCc3ccccc3F)cc2)n1` (stereo not drawn), the “activation” value is inactive: -9.77%.
Regarding `COc1ccc(COC(=O)c2[nH]c3c(c2C)C(=O)CC(c2ccc(OC)c(OC)c2)C3)cc1` (stereo not drawn), the “activation” value was inactive: -16.2%.
`COc1ccccc1-c1c(C)nn2c(N3CCN(c4cccc(Cl)c4)CC3)cc(C)nc12`: the “activation” value was inactive: -5.79%.
The result for `Cc1c(NS(=O)(=O)c2cccc(C(=O)O)c2)c(=O)n(-c2ccccc2)n1C` reads inactive: -15.6%.
Consider `COc1ccc(OC)c(NC(=O)c2cc3c(s2)-c2ccccc2SC3)c1`, for which the “activation” value is inactive: -7.95%.
On to `CCC(=O)N1c2ccccc2CC1C(=O)NCc1ccccc1C` (stereo not drawn), for which the “activation” value was inactive: -21.3%.
The result for `O=C(CSc1nnc(CNC(=O)c2c(F)cccc2Cl)o1)Nc1ccccc1F` reads inactive: -16.1%; that for `CC(=O)SC[C@@H](C)C(=O)N1CCC[C@H]1C(=O)N[C@@H](Cc1ccccc1)C(=O)O`, inactive: -15.6%.
For `COCCCNC(=O)c1cc2n(n1)CCCN(Cc1ccc(C)cc1)C2=O`, the “activation” value is inactive: 18.8%.
For the molecule `CC[C@H](C)[C@H](N)C(=O)O`, the “activation” value was inactive: -12.5%.
With `Cc1ccc(C)c(NS(=O)(=O)c2ccc3c4c(cccc24)C(=O)N3)c1`, the “activation” value was inactive: -11.1%.
As to `COc1cccc(Cn2nnc3c(=O)[nH]c(C4CCCN(C(=O)c5ccc(C)cc5)C4)nc32)c1` (stereo not drawn), the “activation” value is inactive: -1.67%.
Take `CNc1nc(Oc2ccc(=O)n(C)n2)nc(N2CCOCC2)n1`: the “activation” value was inactive: -15.4%.
The result for `Cc1ccc(-n2ncc(C(=O)NC3CCCC3)c2C2CCN(C(=O)OC(C)(C)C)CC2)c(C)c1` reads inactive: -4.02%; that for `CS(=O)(=O)c1ncc(N(Cc2ccco2)Cc2ccco2)c(C(=O)Nc2ccccc2Br)n1`, inactive: -2.33%; that for `CC1=C(C(=O)OCc2ccc(C)cc2)C(c2c(Cl)cccc2Cl)CC(=O)N1` (stereo not drawn), inactive: 2.35%.
The result for `C=CCc1cccc2cc(C(=O)Nc3cccc(Cl)c3)c(=O)oc12` reads inactive: -15.4%.
As to `CCOC(=O)c1sc2ccccc2c1S(=O)(=O)Nc1cccc(C(F)(F)F)c1`, the “activation” value was inactive: -31.9%.
The result for `Cc1cccc(C(=O)NCCc2sc(-c3ccccc3)nc2C)c1` reads inactive: -24.4%.
The result for `CC(C)OCCCNC(=O)c1ccc2c(=O)n(CCc3ccccc3)c(=O)[nH]c2c1` reads inactive: -13.5%.

Source of the values: PubChem BioAssay AID1159614 (National Center for Advancing Translational Sciences (NCATS), 2016).
